Measured values from PubChem BioAssay AID651820 (National Center for Advancing Translational Sciences (NCATS), 2012).
The whole screen tested about 340,000 compounds, of which about 12,000 (3.5%) were called active. This list was built around the results that the source calls inconclusive (neither active nor inactive); the mix of calls is not that of the screen. Calls follow the shape of the dose curve; as a rule, active = well fitted inhibition curve with a large enough effect; inconclusive = small, poorly fitted or top-dose-only effect, or another doubt; inactive = no such curve, though single readings can be large or run the other way. Potencies of inconclusive entries are left out as doubtful fits.

Assay: qHTS Assay for Inhibitors of Hepatitis C Virus (HCV)
Conditions: Huh7.5.1 HCVcc-Cre (HCVcc is cell-culture hepatitis C virus) infection, luciferase reporter, 44 h; series mostly up to 41.8 µM
Method in brief: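 Cells (1,000/well) were plated 4 h before compound, then infected with HCVcc-Cre virus (~0.5 moi). After 44 h further culture, infection was read as luciferase luminescence following a 15 min substrate incubation at room temperature.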
Potency is read from the fitted curve at half-maximal effect; tags tell the direction and shape of the fitted curve.

SMILES	Potency
CCOC(=O)C(O)(CCC(O)(C(=O)OCC)C(=O)OCC)C(=O)OCC	inconclusive [inhibitor, single point]
COCCCNCCCCOc1ccccc1-c1ccccc1	inconclusive [inhibitor, partial curve]
c1ccc(NC2=NCCN2CCCC2CCCCC2)cc1	inconclusive [inhibitor, single point]
NC(=O)c1c(C(F)(F)F)cc(-c2ccccc2)nc1NCCO	inconclusive [inhibitor, single point]
CCOC(=O)c1c(NC(=O)CCNCc2ccco2)sc2c1CCC2	inconclusive [inhibitor, full curve]
O=C(COC(=O)c1ccc([N+](=O)[O-])o1)NCc1ccc(F)cc1	inconclusive [inhibitor, single point]
CC(C)(C)NCC(=Cc1ccccc1)C(=O)c1ccccc1	inconclusive [inhibitor, full curve]
CC(=O)Nc1nnc(SCC(=O)NCC2CCCO2)s1 (stereo not given)	inactive
Cn1ncc(Cl)c1C(=O)NC1CCCC1	inactive
CCN(CC)S(=O)(=O)c1cccc(-c2nnc(SCCCC(=O)c3ccc(F)cc3)o2)c1	inconclusive [inhibitor, partial curve]
CCOc1ccc(-n2c(C)nc3cc(C(=O)NCc4ccco4)ccc32)cc1	inconclusive [inhibitor, single point]
C[C@H](CO)N1C[C@H](C)[C@@H](CN(C)S(=O)(=O)c2ccc(F)cc2)Oc2ccc(NC(=O)CCC(F)(F)F)cc2C1=O	inactive
CCOc1cc(/C=C2/SC(=S)N(CC3CCCO3)C2=O)ccc1O (stereo not given)	inconclusive [inhibitor, partial curve]
CCn1nc(C)c(CNC(=O)Nc2ccccc2C(=O)OC)c1C	inconclusive [inhibitor, single point]
Cc1ccc2nc(C)c(C(=O)N/N=C/c3ccccc3[N+](=O)[O-])cc2c1	inactive
CCCNC(=O)/C=C/c1ccc(C(C)C)cc1	inactive
COC(=O)c1ccc(NC(=O)CCN2C(=O)NC(C)(C)C2=O)cc1	inactive
Cc1ccc(Cc2cnc(NC(=O)c3ccco3)s2)cc1	inconclusive [inhibitor, single point]
COc1ccc(N(C)C(=O)c2cc3c(s2)-c2c(C)cccc2OC3)c(OC)c1	inconclusive [inhibitor, single point]
COc1ccc(C(=O)NCC(=O)OCC(=O)c2c(C)[nH]c3ccccc23)cc1OC	inconclusive [inhibitor, partial curve]
Clc1ccccc1-c1nc2nc3ccccc3nc2n1-c1ccc2c(c1)OCO2	inconclusive [inhibitor, partial curve]
CCOC(=O)c1ccc(/C=C2\c3ccccc3C(=O)N2c2ccccc2)cc1F	inactive
CC(=O)NC(=S)Nc1sc2c(c1C#N)CCCCC2	inconclusive [inhibitor, full curve, poor fit]

SMILES	Potency
CCCN(C(=O)C1CCCN(c2ncnc3c2nc2n3CCCCC2)C1)c1ccc(F)cc1 (stereo not given)	inconclusive [inhibitor, single point]
Cc1ccc(NS(=O)(=O)c2ccc(C(=O)NNC(=O)c3ccccc3O)cc2)cc1	inconclusive [inhibitor, single point]
COc1ccc(CNC(=O)CCc2ccc(S(=O)(=O)N3CCCCCC3)cc2)cc1OC	inconclusive [inhibitor, single point]
Cc1cc(C)n(-c2cc(N3CCN(C(=O)c4cccc(Br)c4)CC3)ccc2[N+](=O)[O-])n1	inconclusive [inhibitor, single point]
Cc1cc(NC(=O)CSCC(=O)OCc2nnc(-c3ccccc3)o2)no1	inactive
C=CCn1c(=NC(=O)c2cccs2)sc2cccc(OC)c21	inconclusive [inhibitor, partial curve]
Cc1c(C(=O)Nc2cccc(S(=O)(=O)N3CCOCC3)c2)oc2ccccc12	active: 14.1 µM
FC(F)Sc1ccc(NC(=S)N2CCN(c3ccccn3)CC2)cc1	inconclusive [inhibitor, full curve]
C=CCNC(=S)N1CCC(C(N)=O)CC1	inconclusive [inhibitor, full curve, poor fit]
COc1ccc(CNC(=O)c2ccc(N(C)S(=O)(=O)c3ccc(C)cc3)cc2)cc1	active: 4.47 µM
Nc1nc(CSc2ncn(-c3ccccc3)n2)cs1	inconclusive [inhibitor, partial curve]
Nc1ccccc1OCP(=O)(c1ccccc1)c1ccccc1	inconclusive [inhibitor, single point]
Cc1ccc(S(=O)(=O)N2CCCC2C(=O)OCc2ccco2)cc1 (stereo not given)	inactive
COc1cc(C(C)=O)ccc1OCC(=O)NCCCn1nc(C)cc1C	inactive
COc1cc(O)c(CCC(=O)c2cc(OC)c(OC)c(OC)c2)c(OC)c1	inconclusive [inhibitor, partial curve]
COc1ccc(CN2C[C@H](Cc3ccccc3)[C@@H](CC(=O)Nc3ccccc3)C2=O)cc1	inconclusive [inhibitor, single point]
COc1cc(/C=C/C(=O)OCC(=O)NCCc2ccc(S(N)(=O)=O)cc2)ccc1OCC#N	inconclusive [inhibitor, single point]
O=C(N/N=C/c1ccccc1[N+](=O)[O-])C(=O)N1CCCC1	inactive
CCOc1cc(/C=N\O)cc(Cl)c1OCC	inconclusive [inhibitor, partial curve]
CCOc1ccc(NS(=O)(=O)c2cc(C(=O)NCCCN3CCCC3=O)ccc2C)cc1	inconclusive [inhibitor, single point]
O=C(Cc1ccccc1)NCC(=O)OCC(=O)c1ccc(Cl)c([N+](=O)[O-])c1	inactive
O=C(CNCC1CCCCC1)Nc1ccccc1N1CCCCC1	active: 11.2 µM
